PubChem BioAssay AID1454 (National Center for Advancing Translational Sciences (NCATS), 2008)
Among all 130,000 compounds or so, about 550 (0.42%) were called active. The shares of active, inactive and inconclusive entries below differ from those in the screen. Calls follow the shape of the dose curve; as a rule, active = well fitted inhibition curve with a large enough effect; inconclusive = small, poorly fitted or top-dose-only effect, or effect the other way; inactive = flat fitted curve, though single readings scatter. Potencies of inconclusive entries are left out as doubtful fits.

assay: qHTS Assay for Inhibitors of the ERK Signaling Pathway using a Homogeneous Screening Assay; Stimulation with EGF; details: HEK293-V1b, EGF-stimulated phospho-ERK AlphaScreen; activity change, negative = inhibition: at the top concentration; also: nearly all actives have a fitted effect of over 55% in size;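 as to activity change, negative = inhibition: plate controls were stimulated vehicle wells for no effect and unstimulated vehicle basal for full effect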
In short: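 Homogeneous cell-based phospho-ERK assay: HEK293/V1b cells in 1% FBS, compound 30 min then EGF 5 min, AlphaScreen luminescence. Activity normalized between DMSO and 25 nM EGF controls; AC50 from Hill modelling.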
Potency is read from the fitted curve at half-maximal effect; tags tell the direction and shape of the fitted curve.

| Structure (SMILES) | Potency | activity change, negative = inhibition |
| --- | --- | --- |
| COCCCn1c(SCCc2ccccc2)nc2cc(OC)c(OC)cc2c1=N | inconclusive [inhibitor, single point] | – |
| COc1ccccc1-c1cn[nH]c1-c1ccc(OCc2ccccc2)cc1O | – | inactive: -10.3% [at 57.5 µM] |
| O=C(Nc1ccc2ccccc2c1)c1ccc(NS(=O)(=O)c2ccc(Br)s2)cc1 | inconclusive [inhibitor, single point] | – |
| COc1ccc(C(=O)C2CCCN(Cc3nc4ccccc4nc3C)C2)cc1OC (stereo not given) | inconclusive [inhibitor, single point] | – |
| COc1cc(NS(=O)(=O)c2ccc(NC(=O)/C=C/c3cccc([N+](=O)[O-])c3)cc2)ncn1 | – | inactive: 2.85% |
| CCCn1nc(NC(=O)c2cccs2)c2cc3cccc(C)c3nc21 | inconclusive [activator, single point] | – |
| Cn1c(COc2ccc3ccccc3c2)nnc1SCC(=O)OC1CCCCC1 | inconclusive [inhibitor, single point] | – |
| COC(CNC(=O)C(C)n1nc(C)c2ccccc21)OC (stereo not given) | – | inactive: 3% |
| Cc1ccc(Nc2ncnc3sc(C)c(C)c23)cc1 | active: 8.91 µM | – |
| CC(C)C[C@@H](CC(=O)N[C@H](CC(=O)N[C@@H]1CCNC[C@H]1C(=O)N[C@H](CC(=O)N[C@@H](CCC(=O)O)CC(=O)O)Cc1c[nH]c2ccccc12)C(C)C)NC(=O)[C@@H]1CNCC[C@H]1N | – | inactive: 4.88% |
| O=[N+]([O-])c1ccccc1N/N=C1\CCc2ccccc21 | inconclusive [inhibitor, full curve] | – |
| CCCCC[C@H](O)/C=C/C=C/C/C=C\CCCC(=O)O | – | inactive: -16.1% |
| CCOC(=O)c1[nH]c2ccccc2c1NC(=O)c1ccc(Br)o1 | inconclusive [inhibitor, single point] | – |
| C=CC(=O)c1ccc2ccccc2c1 | inconclusive [inhibitor, single point] | – |
| Cc1cc(Cl)ccc1OC(C)C(=O)Nc1ccc([N+](=O)[O-])cn1 (stereo not given) | inconclusive [inhibitor, single point] | – |
| CCCCNC(=O)O/N=C(\N)CS(=O)(=O)C(C)(C)C | – | inactive: 1.79% [at 57.5 µM] |
| COc1ccc(C(=O)C2CCCN(C(=O)c3noc4c3CCCC4)C2)cc1F (stereo not given) | inconclusive [inhibitor, partial curve, poor fit] | – |
| Cc1cc(C=C2C(=O)c3ccccc3C2=O)c(C)n1-c1cccc(C(=O)O)c1 | inconclusive [inhibitor, partial curve, poor fit] | – |
| COC(=O)c1cc(=O)n(Cc2cccs2)c(=Nc2ccc(F)cc2)s1 | inconclusive [inhibitor, partial curve] | – |
| CC(=O)c1cccc(NC(=S)NNC(=O)c2ccc(C)c([N+](=O)[O-])c2)c1 | inconclusive [inhibitor, single point] | – |
| COc1ccc(OC)c(C(=O)Cn2nnc(-c3ccc(N4CCOCC4)cc3)n2)c1 | – | inactive: 1.86% [at 57.5 µM] |
| O=C(/C=C/c1cccc([N+](=O)[O-])c1)Nc1ccccc1N1CCOCC1 | – | inactive: -3.65% |

| Structure (SMILES) | Potency | activity change, negative = inhibition |
| --- | --- | --- |
| COc1ccc(C(=O)Nc2ccccc2C(=O)O)cc1NC(=O)C(c1ccccc1)c1ccccc1 | inconclusive [inhibitor, single point] | – |
| N#CC(=C(/N)Sc1ccccc1N)/C(C#N)=C(/N)Sc1ccccc1N | active: 0.891 µM | – |
| O=C1C(Cl)=C(N2CCN(c3ccccc3[N+](=O)[O-])CC2)C(=O)c2ccccc21 | active: 25.1 µM | – |
| CN(C)c1ccc(C2CNC(c3ccc(Cl)c([N+](=O)[O-])c3)c3[nH]c4ccccc4c32)cc1 (stereo not given) | inconclusive [inhibitor, partial curve] | – |
| COc1ccc2c(C#N)c3ccccn3c2c1 | inconclusive [activator, partial curve] | – |
| CCOC(=O)/C(C#N)=C1\C(=O)N(Cc2ccccc2)c2ccccc21 | inconclusive [inhibitor, single point] | – |
| Oc1ccc(N=Nc2ccc3c(c2)OCCO3)c2ncccc12 | inconclusive [inhibitor, single point] | – |
| Oc1cccc2ccc[n+](CC(O)Cn3c4ccccc4c4ccccc43)c12 (stereo not given) | inconclusive [inhibitor, single point] | – |
| c1ccc(-c2ccc(N3CC4(CCNCC4)C3)cc2)cc1 | active: 20 µM | – |
| C=CCn1c(-c2cc(-c3ccc(C)cc3)nc3ccccc23)n[nH]c1=S | inconclusive [inhibitor, single point] | – |
| COc1cccc2cc(S(=O)(=O)c3ccccc3)c(=Nc3ccc4c(c3)OCCO4)oc12 | inconclusive [inhibitor, single point] | – |
| O=C(Nc1ccc2cn[nH]c2c1)c1ccccc1F | – | inactive: 1.53% |
| CC1CCCC(C)N1C(=O)Cn1cnc2cc([N+](=O)[O-])ccc2c1=O (stereo not given) | inconclusive [inhibitor, single point] | – |
| CCCCCCCCCCCCC/C=C/[C@@H](O)[C@H](CO)NC(=O)CCCCCCCCCCCCCCC | – | inactive: -0.344% |
| CC1CC[C@]2(CO)CC[C@]3(C)C(=CCC4[C@@]5(C)CCC(O)C(C)(C)C5CC[C@@]43C)C2C1C (stereo not given in full) | – | inactive: -8.77% |
| CCCn1c(-c2ccc(F)cc2)nc2c(NCC(C)(C)CN(C)C)nc(C)nc21 | – | inactive: -3.77% |
| CN(C)C(=O)Cn1c(SCC(=O)NC2CCCCC2)nc2ccccc21 | – | inactive: 0.169% |
| c1ccc(C2=NN(c3ccccc3)CC2)cc1 | inconclusive [activator, partial curve] | – |
| Cc1cc(N)c2ccccc2[n+]1CCCCCCCCCCCCCC[n+]1c(C)cc(N)c2ccccc21 | active: 28.2 µM | – |
| N/C(Cc1ccc(Cl)cc1Cl)=N\OC(=O)Cc1cccs1 | inconclusive [activator, partial curve] | – |
| Cc1cccc(NC(=S)N/N=C/c2cccc(O)c2)c1C | inconclusive [inhibitor, full curve, poor fit] | – |
| COc1ccc2sc(N(CCN(C)C)C(=O)c3cc(Cl)sc3Cl)nc2c1 | inconclusive [inhibitor, single point] | – |

| Structure (SMILES) | Potency | activity change, negative = inhibition |
| --- | --- | --- |
| CCn1cc(C(=O)O)c(=O)c2cnc(N3CCN(C(=S)NC(=O)c4ccccc4)CC3)nc21 | inconclusive [inhibitor, single point] | – |
| CCN1CCN(CC(=O)Nc2ccc(Cl)c(S(=O)(=O)N(C)C)c2)CC1 | inconclusive [activator, full curve, poor fit] | – |
| COc1cccc(C(=O)/C=C/c2ccc(N3CCCCC3)c([N+](=O)[O-])c2)c1 | inconclusive [inhibitor, partial curve] | – |
| COC(=O)C1=C(Nc2ccc(C)cc2)C=C(C)C(C(=O)OC)C1c1ccc(F)cc1 (stereo not given) | inconclusive [activator, partial curve] | – |
| COc1cc(/C=N/NC(=O)C2CCN(CC(O)COCc3ccccc3)CC2)cc(OC)c1OC (stereo not given) | – | inactive: -0.459% |
| COc1ccc(-c2nc3ccccc3c(=O)n2CCOc2ccc(C)cc2C)cc1 | inconclusive [activator, single point] | – |
| Cc1cccc(CNc2nc(-c3cccc(NS(C)(=O)=O)c3)nc3ccccc23)c1 | inconclusive [inhibitor, single point] | – |
| COC(=O)C(NC(C)=O)(Nc1cccc(C)n1)C(F)(F)F (stereo not given) | inconclusive [inhibitor, single point] | – |
| COC(=O)c1sccc1NC(=S)NCc1ccc(Cl)cc1 | inconclusive [inhibitor, single point] | – |
| COc1ccc2oc(C)c(C(=O)c3ccc([N+](=O)[O-])cc3)c2c1 | inconclusive [inhibitor, partial curve, poor fit] | – |
| NNC(=O)COc1ccc(-c2n[nH]c(C(F)(F)F)c2-c2ccc(Br)cc2)c(O)c1 | inconclusive [inhibitor, single point] | – |
| S=c1[nH]nc(COc2ccccc2)n1/N=C/c1cccs1 | inconclusive [activator, partial curve] | – |
| CO[C@H]1C=CO[C@@]2(C)Oc3c(C)c(O)c4c(O)c(c(C=NN5CCN(C6CCCC6)CC5)c(O)c4c3C2=O)NC(=O)C(C)=CC=C[C@H](C)[C@H](O)[C@@H](C)[C@@H](O)[C@@H](C)[C@H](OC(C)=O)[C@@H]1C | active: 8.91 µM | – |
| CCOC(=O)C1=C(C)N(c2ccc(OCC)cc2)C(=O)/C1=C\c1ccco1 | inconclusive [inhibitor, partial curve] | – |
| Cc1nn(-c2ccccc2)c(Cl)c1/C=C1\SC(=S)N(C)C1=O | inconclusive [inhibitor, partial curve] | – |
| CN(C)c1ccc(-c2cc([C@H]3[C@@H]4C=CCC[C@@]4(C)C(=O)N3Cc3ccccc3)ccc2F)cc1 | inconclusive [inhibitor, partial curve] | – |
| O=Cc1s/c(=N\S(=O)(=O)c2ccccc2)n(CCCCl)c1Cl | active: 22.4 µM | – |
| O=C(c1ccc(-c2ccccc2)cc1)c1ccc([N+](=O)[O-])cc1 | inconclusive [inhibitor, partial curve] | – |
| CC1(C)C(=O)OC(c2cc(Br)ccc2O)C(C)(C)C1=O (stereo not given) | inconclusive [inhibitor, single point] | – |
| C=CCn1cc(/C=N/Nc2nc3ccccc3[nH]2)c2ccccc21 | – | inactive: 2.78% |
| COc1ccc(C2=NN(C(=O)c3cccs3)C(O)(C(F)(F)F)C2)cc1 (stereo not given) | inconclusive [inhibitor, single point] | – |
